Results published in PubChem BioAssay (NCI).
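Dose response: 5 concentrations. Exposure: 48 h. Format: 96-well plates. Endpoint: linear interpolation; highest concentration if not reached. GI50: concentration for 50% inhibition of growth. Definition used: TGI = concentration required for complete inhibition of growth.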

tested on: NCI-H322M lung; experiment: NCI-60 cell line screen, 48 h

Going from `Cc1ccc(C(=O)CSc2nc3ccc(F)cc3c(=O)n2-c2ccc(Cl)cc2)cc1` to `CN1CCN(c2ccc(C(=O)/C=C/c3cc(Br)ccc3F)cc2)CC1`, the GI50 falls from greater than 100 µM to 17.5 µM.

For `CS(=O)(=O)Nc1cc(-c2ccc3ncnc(N4CCc5cc(F)c(Cl)cc54)c3c2)cnc1Cl`, the GI50 was 1.12 µM.

Going from `Cc1ccc(C(=O)CSc2nc3ccc(F)cc3c(=O)n2-c2ccc(Cl)cc2)cc1` to `CN1CCN(c2ccc(C(=O)/C=C/c3cc(Br)ccc3F)cc2)CC1`, the TGI falls from greater than 100 µM to 31.8 µM.

Work on `CS(=O)(=O)Nc1cc(-c2ccc3ncnc(N4CCc5cc(F)c(Cl)cc54)c3c2)cnc1Cl` yielded a TGI of 6.92 µM.
